# From the supplement of paper PMC12217912
# The list shows a part of the results. Sequences were assembled here from the parent chain. Values near 0.05 are background.
# B1: TEV protease; numbered along this chain (parent)
# chain: MGESLFKGPRDYNPISSSICHLTNESDGHTTSLYGIGFGPFIITNKHLFRRNNGTLVVQSLHGVFKVKDTTTLQQHLVDGRDMIIIRMPKDFPPFPQKLKFREPQREERICLVTTNFQTKSMSSMVSDTSCTFPSGDGIFWKHWIQTKDGQCGSPLVSTRDGFIVGIHSASNFTNTNNYFTSVPKNFMELLTNQEAQQWVSGWRLNADSVLWGGHKVFMVKPEEPFQPVKEATQL
# Variants of: B1
# Experiment: raw area under fraction-flipped curve 0-4 h after induction (AUC4h, not background-subtracted), DNA-recorder readout of cleavage of the substrate (dimensionless); higher = more cleavage of the substrate by the protease variant
# Conditions: temperature: 34 °C; time window: 0-4 h after rhamnose induction
# Method: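 In vivo DNA recorder in E. coli TOP10(DE3) ΔrhaA at 34 °C. Each TEVp single-site mutant (parent TEVp 0) is paired with a single-site variant of the 7-mer TEVs (canonical ENLYFQ|S). The substrate sits between flexible linkers in a Bxb1-sfGFP-TEVs-SsrA fusion, so cleavage stabilises Bxb1 and speeds flipping of a recombination array, read by NGS. The value is the raw area under the fraction-flipped curve over 0-4 h after rhamnose induction (AUC4h), with ≥20 reads per time point. It is not background-subtracted; inactive controls average about 0.047.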
# 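Further: Bxb1 expression induced with 0.2% (w/v) L-rhamnose at OD600 near 0.5, cultures sampled hourly, flipped fraction per protease–substrate barcode pair counted by paired-end Illumina sequencing.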
Variant,area with substrate EALYFQS,area with substrate ECLYFQS,area with substrate EELYFQS,area with substrate EGLYFQS,area with substrate EILYFQS,area with substrate EKLYFQS,area with substrate ELLYFQS,area with substrate EMLYFQS,area with substrate EQLYFQS,area with substrate ESLYFQS,area with substrate EVLYFQS,area with substrate EWLYFQS,area with substrate EDLYFQS,area with substrate EHLYFQS,area with substrate EPLYFQS,area with substrate ERLYFQS,area with substrate ETLYFQS,area with substrate EYLYFQS,area with substrate EFLYFQS
MGESLFKGPRDYNPISSSICHLTNESDGHTTSLYGIGFGPFIITNKHLFRRNNGTLVVQSLHGVFKVQDTTTLQQHLVDGRDMIIIRMPKDFPPFPQKLKFREPQREERICLVTTNFQTKSMSSMVSDTSCTFPSGDGIFWKHWIQTKDGQCGSPLVSTRDGFIVGIHSASNFTNTNNYFTSVPKNFMELLTNQEAQQWVSGWRLNADSVLWGGHKVFMVKPEEPFQPVKEATQL [K68Q],0.137,0.108,0.11,0.109,0.0964,0.0945,0.0919,0.125,0.105,0.0994,0.123,0.0991,–,–,–,–,–,–,–
MGESLFKGPRDYNPISSSICHLTNESDGHTTSLYGIGFGPFIITNKHLFRRNNGTLVVQSLHGVFKVKRTTTLQQHLVDGRDMIIIRMPKDFPPFPQKLKFREPQREERICLVTTNFQTKSMSSMVSDTSCTFPSGDGIFWKHWIQTKDGQCGSPLVSTRDGFIVGIHSASNFTNTNNYFTSVPKNFMELLTNQEAQQWVSGWRLNADSVLWGGHKVFMVKPEEPFQPVKEATQL [D69R],0.0869,0.0924,0.0817,0.0748,0.0814,0.0892,0.0704,0.0937,0.0889,0.0807,0.147,0.0899,0.115,0.0763,0.112,0.0701,–,–,–
MGESLFKGPRDYNPISSSICHLTNESDGHTTSLYGIGFGPFIITNKHLFRRNNGTLVVQSLHGVFKVKDATTLQQHLVDGRDMIIIRMPKDFPPFPQKLKFREPQREERICLVTTNFQTKSMSSMVSDTSCTFPSGDGIFWKHWIQTKDGQCGSPLVSTRDGFIVGIHSASNFTNTNNYFTSVPKNFMELLTNQEAQQWVSGWRLNADSVLWGGHKVFMVKPEEPFQPVKEATQL [T70A],0.104,0.073,0.103,0.0409,–,0.0786,–,–,–,0.0749,0.0745,–,–,–,–,0.0546,0.0752,0.0859,–
MGESLFKGPRDYNPISSSICHLTNESDGHTTSLYGIGFGPFIITNKHLFRRNNGTLVVQSLHGVFKVKDDTTLQQHLVDGRDMIIIRMPKDFPPFPQKLKFREPQREERICLVTTNFQTKSMSSMVSDTSCTFPSGDGIFWKHWIQTKDGQCGSPLVSTRDGFIVGIHSASNFTNTNNYFTSVPKNFMELLTNQEAQQWVSGWRLNADSVLWGGHKVFMVKPEEPFQPVKEATQL [T70D],0.0708,0.0588,0.0828,0.0465,0.0801,0.102,–,–,–,0.0686,0.0308,0.0776,0.0953,–,–,0.0944,0.072,–,0.084
MGESLFKGPRDYNPISSSICHLTNESDGHTTSLYGIGFGPFIITNKHLFRRNNGTLVVQSLHGVFKVKDWTTLQQHLVDGRDMIIIRMPKDFPPFPQKLKFREPQREERICLVTTNFQTKSMSSMVSDTSCTFPSGDGIFWKHWIQTKDGQCGSPLVSTRDGFIVGIHSASNFTNTNNYFTSVPKNFMELLTNQEAQQWVSGWRLNADSVLWGGHKVFMVKPEEPFQPVKEATQL [T70W],0.0651,0.0645,0.0607,0.0627,0.062,0.0794,0.0652,0.0572,0.0677,0.0695,0.0884,0.0669,0.0766,0.0675,0.0678,0.0562,0.0778,–,0.0544
MGESLFKGPRDYNPISSSICHLTNESDGHTTSLYGIGFGPFIITNKHLFRRNNGTLVVQSLHGVFKVKDTTTLEQHLVDGRDMIIIRMPKDFPPFPQKLKFREPQREERICLVTTNFQTKSMSSMVSDTSCTFPSGDGIFWKHWIQTKDGQCGSPLVSTRDGFIVGIHSASNFTNTNNYFTSVPKNFMELLTNQEAQQWVSGWRLNADSVLWGGHKVFMVKPEEPFQPVKEATQL [Q74E],0.145,0.0958,–,0.103,–,0.0647,–,0.119,0.126,0.104,0.0862,–,0.0866,–,–,0.1,0.122,0.0931,0.0836
MGESLFKGPRDYNPISSSICHLTNESDGHTTSLYGIGFGPFIITNKHLFRRNNGTLVVQSLHGVFKVKDTTTLQQILVDGRDMIIIRMPKDFPPFPQKLKFREPQREERICLVTTNFQTKSMSSMVSDTSCTFPSGDGIFWKHWIQTKDGQCGSPLVSTRDGFIVGIHSASNFTNTNNYFTSVPKNFMELLTNQEAQQWVSGWRLNADSVLWGGHKVFMVKPEEPFQPVKEATQL [H76I],0.1,0.0691,–,0.0605,–,0.034,–,–,0.0899,0.0894,0.0905,0.103,–,–,0.0986,0.0669,–,–,0.0775
MGESLFKGPRDYNPISSSICHLTNESDGHTTSLYGIGFGPFIITNKHLFRRNNGTLVVQSLHGVFKVKDTTTLQQSLVDGRDMIIIRMPKDFPPFPQKLKFREPQREERICLVTTNFQTKSMSSMVSDTSCTFPSGDGIFWKHWIQTKDGQCGSPLVSTRDGFIVGIHSASNFTNTNNYFTSVPKNFMELLTNQEAQQWVSGWRLNADSVLWGGHKVFMVKPEEPFQPVKEATQL [H76S],0.112,0.0965,0.121,0.0592,0.124,0.101,0.0984,0.126,0.116,0.108,–,0.0799,0.106,–,–,0.112,0.118,0.0903,0.0853
MGESLFKGPRDYNPISSSICHLTNESDGHTTSLYGIGFGPFIITNKHLFRRNNGTLVVQSLHGVFKVKDTTTLQQHDVDGRDMIIIRMPKDFPPFPQKLKFREPQREERICLVTTNFQTKSMSSMVSDTSCTFPSGDGIFWKHWIQTKDGQCGSPLVSTRDGFIVGIHSASNFTNTNNYFTSVPKNFMELLTNQEAQQWVSGWRLNADSVLWGGHKVFMVKPEEPFQPVKEATQL [L77D],0.0748,0.0703,0.0642,0.0706,0.0655,0.0706,0.0634,0.0693,0.0666,0.0771,0.025,0.0727,0.0841,–,0.0492,0.0684,0.0418,–,0.0652
MGESLFKGPRDYNPISSSICHLTNESDGHTTSLYGIGFGPFIITNKHLFRRNNGTLVVQSLHGVFKVKDTTTLQQHVVDGRDMIIIRMPKDFPPFPQKLKFREPQREERICLVTTNFQTKSMSSMVSDTSCTFPSGDGIFWKHWIQTKDGQCGSPLVSTRDGFIVGIHSASNFTNTNNYFTSVPKNFMELLTNQEAQQWVSGWRLNADSVLWGGHKVFMVKPEEPFQPVKEATQL [L77V],0.083,–,–,0.0801,–,0.042,–,–,0.0938,0.0807,0.083,–,–,0.0663,0.104,0.0831,–,0.0985,–
MGESLFKGPRDYNPISSSICHLTNESDGHTTSLYGIGFGPFIITNKHLFRRNNGTLVVQSLHGVFKVKDTTTLQQHLVDRRDMIIIRMPKDFPPFPQKLKFREPQREERICLVTTNFQTKSMSSMVSDTSCTFPSGDGIFWKHWIQTKDGQCGSPLVSTRDGFIVGIHSASNFTNTNNYFTSVPKNFMELLTNQEAQQWVSGWRLNADSVLWGGHKVFMVKPEEPFQPVKEATQL [G80R],0.0898,0.108,0.0622,–,0.11,–,0.0847,0.11,0.0644,0.0913,–,0.112,0.0398,–,–,0.131,–,0.102,–
MGESLFKGPRDYNPISSSICHLTNESDGHTTSLYGIGFGPFIITNKHLFRRNNGTLVVQSLHGVFKVKDTTTLQQHLVDGDDMIIIRMPKDFPPFPQKLKFREPQREERICLVTTNFQTKSMSSMVSDTSCTFPSGDGIFWKHWIQTKDGQCGSPLVSTRDGFIVGIHSASNFTNTNNYFTSVPKNFMELLTNQEAQQWVSGWRLNADSVLWGGHKVFMVKPEEPFQPVKEATQL [R81D],0.0627,0.0673,0.0546,0.0598,0.0497,0.0517,–,0.0693,0.0766,0.065,0.06,0.0669,–,–,–,0.0615,–,0.068,–
MGESLFKGPRDYNPISSSICHLTNESDGHTTSLYGIGFGPFIITNKHLFRRNNGTLVVQSLHGVFKVKDTTTLQQHLVDGEDMIIIRMPKDFPPFPQKLKFREPQREERICLVTTNFQTKSMSSMVSDTSCTFPSGDGIFWKHWIQTKDGQCGSPLVSTRDGFIVGIHSASNFTNTNNYFTSVPKNFMELLTNQEAQQWVSGWRLNADSVLWGGHKVFMVKPEEPFQPVKEATQL [R81E],0.0729,–,0.0735,0.0693,0.0581,0.0745,0.0602,0.0741,0.0404,0.0655,0.0559,0.0653,0.0804,–,0.0794,0.0819,–,–,–
MGESLFKGPRDYNPISSSICHLTNESDGHTTSLYGIGFGPFIITNKHLFRRNNGTLVVQSLHGVFKVKDTTTLQQHLVDGRFMIIIRMPKDFPPFPQKLKFREPQREERICLVTTNFQTKSMSSMVSDTSCTFPSGDGIFWKHWIQTKDGQCGSPLVSTRDGFIVGIHSASNFTNTNNYFTSVPKNFMELLTNQEAQQWVSGWRLNADSVLWGGHKVFMVKPEEPFQPVKEATQL [D82F],0.077,0.0493,0.0581,0.059,0.0573,0.0665,0.0593,–,0.0486,0.0486,–,0.0497,0.0469,0.0437,0.0586,0.0459,–,–,–
MGESLFKGPRDYNPISSSICHLTNESDGHTTSLYGIGFGPFIITNKHLFRRNNGTLVVQSLHGVFKVKDTTTLQQHLVDGRQMIIIRMPKDFPPFPQKLKFREPQREERICLVTTNFQTKSMSSMVSDTSCTFPSGDGIFWKHWIQTKDGQCGSPLVSTRDGFIVGIHSASNFTNTNNYFTSVPKNFMELLTNQEAQQWVSGWRLNADSVLWGGHKVFMVKPEEPFQPVKEATQL [D82Q],0.0593,0.0617,0.0616,–,0.053,–,0.0803,0.0381,0.0713,0.0701,0.0636,0.0507,0.0404,–,0.062,0.0641,–,–,–
MGESLFKGPRDYNPISSSICHLTNESDGHTTSLYGIGFGPFIITNKHLFRRNNGTLVVQSLHGVFKVKDTTTLQQHLVDGRDIIIIRMPKDFPPFPQKLKFREPQREERICLVTTNFQTKSMSSMVSDTSCTFPSGDGIFWKHWIQTKDGQCGSPLVSTRDGFIVGIHSASNFTNTNNYFTSVPKNFMELLTNQEAQQWVSGWRLNADSVLWGGHKVFMVKPEEPFQPVKEATQL [M83I],0.073,–,–,–,–,–,–,0.107,–,0.0766,–,0.0665,0.1,–,–,0.081,–,–,0.0855
MGESLFKGPRDYNPISSSICHLTNESDGHTTSLYGIGFGPFIITNKHLFRRNNGTLVVQSLHGVFKVKDTTTLQQHLVDGRDMIIKRMPKDFPPFPQKLKFREPQREERICLVTTNFQTKSMSSMVSDTSCTFPSGDGIFWKHWIQTKDGQCGSPLVSTRDGFIVGIHSASNFTNTNNYFTSVPKNFMELLTNQEAQQWVSGWRLNADSVLWGGHKVFMVKPEEPFQPVKEATQL [I86K],0.0572,–,–,–,0.0266,–,0.056,0.0345,0.0389,0.0294,0.0368,–,0.0413,0.0316,–,–,–,0.0533,–
MGESLFKGPRDYNPISSSICHLTNESDGHTTSLYGIGFGPFIITNKHLFRRNNGTLVVQSLHGVFKVKDTTTLQQHLVDGRDMIIIRMPKDFPPWPQKLKFREPQREERICLVTTNFQTKSMSSMVSDTSCTFPSGDGIFWKHWIQTKDGQCGSPLVSTRDGFIVGIHSASNFTNTNNYFTSVPKNFMELLTNQEAQQWVSGWRLNADSVLWGGHKVFMVKPEEPFQPVKEATQL [F95W],0.144,0.0851,0.116,–,0.0809,0.0641,0.0785,0.109,0.154,0.0862,0.1,0.106,0.139,0.0889,0.108,0.0769,–,–,–
